Common to all, as to assay: antibody binding signal (normalised fluorescence) (arbitrary fluorescence units); higher = stronger serum antibody binding to peptide
Assay [1] relates to pooled sera of chronic Chagas disease patients, Argentina. The procedure:
(§1)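 Microarray of 15-residue peptides over residues 30-55 of Trypanosoma cruzi TSSAII, each with 1 to 10 substitutions at naturally variable positions, probed with one serum pool per country.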

The subject of assay [2] is pooled sera of chronic Chagas disease patients, Bolivia. As to the method: as §1
Assay [3] concerns pooled sera of chronic Chagas disease patients, Brazil. As to the method:
as §1

For assay [4], the system named is pooled sera of chronic Chagas disease patients, Colombia. As to the method:
as §1

In assay [5] the test system is pooled sera of chronic Chagas disease patients, Mexico. As to the method: as §1
In assay [6] the test system is pooled sera of chronic Chagas disease patients, USA. As to the method:
as §1

The test system of assay [7] is pooled sera of uninfected people, Argentina. The procedure: as §1
Assay [8] concerns pooled sera of uninfected people, Bolivia. As to the method:
as §1

Assay [9] deals with pooled sera of uninfected people, Brazil. The procedure: as §1
Assay [10] deals with pooled sera of uninfected people, Mexico. The procedure: as §1
The test system of assay [11] is pooled sera of uninfected people, USA. As to the method: as §1

The list shows a part of the results. Antibody binding of pooled human sera (four to six donors per pool; dilution not stated) to peptides of the Trypanosoma cruzi antigen TSSA on microarrays. Quantile-normalised fluorescence in arbitrary units, mean of duplicate arrays; higher = more binding. No active / inactive call. The uninfected pools are read here as the healthy donors of the same country. The strongest signals lie near the top of the scale (about 60,000).

Consider PPSGTDKKPAAGGAP, for which the antibody binding signal in [1] is 20700; in assay [2], 3830; in assay [3], 38700; in assay [4], 14600; in assay [5] it was 48600; in assay [6], 2840. In addition, the antibody binding signal stood at 1040 in assay [7]; 767 in [8]; 311 in assay [9]; 2400 in assay [10]; 569 in assay [11].

Take SGKDNKPAAGETPSP: the antibody binding signal is 746 in [1]; 666 in assay [2]; 17900 in assay [3]; 1290 in assay [4]; 853 in [5]; 3840 in assay [6]. The antibody binding signal in assay [7] was 386; in assay [8] it was 754; in assay [9], 171; in [10], 489; in assay [11], 457.

With TPPSGKDNKTAAGGT, the antibody binding signal in assay [1] is 1370; in assay [2] it was 274; in assay [3], 1570; in [4], 2290; in assay [5] it was 33400; in [6] it was 3740. Also, the antibody binding signal in assay [7] came to 303; in [8], 404; in assay [9] it was 850; in [10], 107; in assay [11], 186.

For the sequence SGKEKKTATGGAPSP, the antibody binding signal in [1] was 3790; in assay [2], 358; in assay [3], 3540; in assay [4] it was 2820; in assay [5] it was 3190; in assay [6], 4310. Also, the antibody binding signal in assay [7] came to 273; in assay [8], 284; in [9], 99.2; in [10], 115; in [11] it was 111.

In the case of SGTENKAAAGGTPSP, the antibody binding signal in assay [1] is 41600; in assay [2] it was 9000; in assay [3], 13100; in [4] it was 3430; in [5], 838; in assay [6], 3960. Further, the antibody binding signal came to 395 in assay [7]; 487 in assay [8]; 1040 in assay [9]; 181 in [10]; 131 in assay [11].

As to DNKPAAGEAPSPPGA, the antibody binding signal in assay [1] amounted to 843; in assay [2] it was 1390; in assay [3], 33000; in assay [4], 293; in [5], 139; in [6], 17000. The antibody binding signal in [7] stood at 99; in assay [8], 207; in [9] it was 263; in assay [10] it was 185; in assay [11], 95.3.

As for TENKTATGETPSQSG, the antibody binding signal in [1] is 18500; in [2], 1560; in assay [3] it was 7750; in assay [4] it was 211; in assay [5], 245; in assay [6], 7750. The antibody binding signal worked out at 117 in [7]; 200 in assay [8]; 213 in assay [9]; 287 in [10]; 141 in assay [11].

On to TDNKPATGEAPSQSG, for which the antibody binding signal in assay [1] was determined as 47500; in [2] it was 52700; in assay [3], 52100; in [4] it was 378; in assay [5] it was 233; in assay [6] it was 40200. For the same sequence, the antibody binding signal in assay [7] was 873; in assay [8], 647; in [9] it was 309; in [10], 524; in [11] it was 150.

On to KEKKPAAGETPSQPG, for which the antibody binding signal stood at 316 in assay [1]; 593 in assay [2]; 24900 in [3]; 165 in assay [4]; 136 in assay [5]; 1490 in assay [6]. The antibody binding signal in [7] worked out at 111; in assay [8], 167; in [9] it was 108; in [10] it was 73.1; in assay [11], 387.

Regarding KENKAATGEAPSQPG, the antibody binding signal in [1] worked out at 27300; in assay [2], 27300; in assay [3] it was 40000; in assay [4], 213; in assay [5] it was 324; in assay [6], 22900. For the same sequence, the antibody binding signal in assay [7] was determined as 284; in assay [8], 163; in assay [9], 137; in [10], 102; in assay [11] it was 202.

As for KPAAGGAPSPPGASS, the antibody binding signal in assay [1] was 167; in assay [2], 198; in [3], 336; in assay [4] it was 1610; in assay [5], 216; in [6] it was 831. The antibody binding signal in assay [7] was determined as 256; in assay [8], 141; in [9], 168; in [10], 90.8; in assay [11], 185.

Consider TSSTPPSGTEKKTAT, for which the antibody binding signal in assay [1] is 33300; in [2] it was 3290; in assay [3] it was 30100; in assay [4], 454; in [5] it was 12600; in assay [6], 3910. Besides, the antibody binding signal in [7] amounted to 869; in [8] it was 291; in [9] it was 139; in [10] it was 98.8; in [11] it was 140.

SGTENKAATGGAPSQ: the antibody binding signal in assay [1] is 38100; in assay [2], 14600; in assay [3], 19200; in [4], 854; in assay [5] it was 984; in assay [6] it was 5850. Also, the antibody binding signal in [7] came out at 519; in assay [8], 400; in assay [9], 235; in assay [10], 201; in assay [11], 118.

Values taken from the supplement of paper PMC10441789.
